PMC12136788
The list shows a part of the results.

T1: UNK ZnF1-3 (human, UniProt Q9C0B0 31-174)
T1 sequence: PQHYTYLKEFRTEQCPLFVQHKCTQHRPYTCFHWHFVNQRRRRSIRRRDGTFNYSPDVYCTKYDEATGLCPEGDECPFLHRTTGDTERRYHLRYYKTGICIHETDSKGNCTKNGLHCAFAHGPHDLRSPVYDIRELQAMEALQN

B1: chr4:25749455:25749456:-_ENSG00000091490_ENST00000264868|hu_hu|hu_hu_hu_mus_False|98_108 (ssRNA)
RNA: GGGAGUUCUACAGUCCGACGAUCGCAAGCACUAGGACCCUAGAAAACACAGGGGGAAAAAAUGUAAACCAAUGUACAAUGUUAUCGCCUUCCCUGUGUGUGGAGUGUUUGUCUCAAGGCUCCUUCUAGCUGCUGGAUUUGGGACAACAGAGGAUUGAGCAUCA
B2: chr17:73774773:73774774:-_ENSG00000132475_ENST00000586270|hu_hu|FALSE|FALSE (ssRNA)
RNA: GGGAGUUCUACAGUCCGACGAUCUUUGGGCAUGAUGGUGACUCUCUUAGCGUGGAUGGCACACAGGUUGGUAUCUUCGAACAGACCCACCAGGUACGCUUCGCUAGCCUCCUGCAGCGCACCGAUGGCUGCGCUCUGAAACCUCAACAGAGGAUUGAGCAUCA
B3: chr2:73746717:73746718:-_ENSMUSG00000018770_ENSMUST00000018914|mus_hu|FALSE|FALSE (ssRNA)
RNA: GGGAGUUCUACAGUCCGACGAUCCAAAAUCAAGAAAGCAACCAUCAAACAAAAGAGACCCAUAGCUUCAGACAAGGCAAAUCCCAGGAUAGCAUAUGAGAACAGCUGCUGCUUCAGCGAAGGGUUUCUGGCAUAACCAAUGAUCAACAGAGGAUUGAGCAUCA
B4: 25286587_25286707_895_CDS_ENSMUSG00000054793_ENSMUST00000068023|mouse|control|control (ssRNA)
RNA: GGGAGUUCUACAGUCCGACGAUCCGCCUCGCAGGUGUAGGUGCCGUUAUCUGCAGAUACCAGGCCAGGUAGCGUGAGCGUCUCGCCCACCGCCUCCGCCCUCUCUGGCAGAGACUCAUUCCCACGGUUCCAGCGGAUCUGGUUCAACAGAGGAUUGAGCAUCA
B5: chr5:46091440:46091441:-_ENSMUSG00000015882_ENSMUST00000045586|mus_mus|motif|central (ssRNA)
RNA: GGGAGUUCUACAGUCCGACGAUCGAUAACUUUACCACAAUGGGUAAUUUCUCUUCCUAAAUUUUUCUAUGUAGGAACACGGUUUUAUGAAUGAAUUCUAGAUUAGGGUGCUGCCCACACACACAUUAAUCAUGAAAGAUACAUCAACAGAGGAUUGAGCAUCA
B6: chr4:136884974:136884975:-_ENSMUSG00000006699_ENSMUST00000030417|mus_hu|FALSE|FALSE (ssRNA)
RNA: GGGAGUUCUACAGUCCGACGAUCCACCCACUUUUCUUUCACGUUUUCAAAUGAAGAUGGAGAGACCACUGAAAAACAGACUAGAAAUACAUCUGUUUGUGGAUAACUCAGCGGUCGUAAUCUGUCAUAAUCCUCUUGCCCUGCCAACAGAGGAUUGAGCAUCA
B7: chr14:67423352:67423353:-_ENSMUSG00000022048_ENSMUST00000022629|mus_hu|FALSE|FALSE (ssRNA)
RNA: GGGAGUUCUACAGUCCGACGAUCGGACCAGGAUGACACAGCACUAUGCUUGCAAUGGCAAACGCUCAAAUCCUUUAGGCGGACCCAACGACCACCAUGAAAUGGUAGACCUGGGAGGUGAAAAGAUAAUGGGGCAAGGGAGGACAACAGAGGAUUGAGCAUCA
B8: chr7:54825262:54825263:-_ENSG00000132432_ENST00000352861|hu_hu|hu_hu_hu_mus_False|38_68 (ssRNA)
RNA: GGGAGUUCUACAGUCCGACGAUCCUGCCGGCUGGGCUCCACAAACUGCAUUACCUGAUCCAUGUUUUACCCAACCGGGAUUGAGAGCGUAGAGACAACGUAGCACUGAGAGAACCGAGCCCAACGGAACCGGAAGCUGGCAACCAACAGAGGAUUGAGCAUCA
B9: chr19:36933551:36933552:+_ENSMUSG00000024811_ENSMUST00000025729|mus_mus|motif|central (ssRNA)
RNA: GGGAGUUCUACAGUCCGACGAUCAUGGCCUUUAAAUUCAUACGAUAAUCUUUCCUUCAGCUGUGCCGUGGGGGCCAGGUCGGUAGCACUUUUAUUGUGACAGUUCAGCAGGGUUGGAUCUGCCCCGUAACUUAGGAGGAGAGACAACAGAGGAUUGAGCAUCA
B10: chr4:76721835:76721836:+_ENSG00000138768_ENST00000264904|hu_mus|hu_hu_hu_mus_True|48_58 (ssRNA)
RNA: GGGAGUUCUACAGUCCGACGAUCGUUUGGCUGGGGUUUCUGAGACGCUCUGGAAUAUAACUCAUGUUUGCUAAUAAUCCUAGUUUCUCUAUGAAAUUUCUCUUUGCCAAUCCUCUUCUCUAUUAGUUGCUUUAGUUUCUCUUUCAACAGAGGAUUGAGCAUCA
B11: chr16:87451109:87451110:-_ENSG00000140948_ENST00000268616|hu_hu|FALSE|FALSE (ssRNA)
RNA: GGGAGUUCUACAGUCCGACGAUCCUUCUCCAUGGAGAGCUGCUUAAAGACGGGGUAAUACUUGUGCAAACGCAGUUUCCUAAGCCAGUCUAGAAUCCCAUUCUGCUCCUGGGUCUGAGGGGUCUGCAGACUGGAAGGCAUGAGCAACAGAGGAUUGAGCAUCA
B12: chrX:71549762:71549763:+_ENSMUSG00000019087_ENSMUST00000019231|mus_mus|mus_mus_mus_hu_False|38_68 (ssRNA)
RNA: GGGAGUUCUACAGUCCGACGAUCAAACCCGUGUACUUCUUAUUGUUAGCACAACAUCACCAGAAAAAAAACAUAACAGCCAAGCAGGACAGACAGUCAAGUAGUCUUUCCACACUCCCAAACUCAGGGAGCCCUAUAACCUUACAACAGAGGAUUGAGCAUCA
B13: 32046403_32047425_1754_CDS_ENSMUSG00000024400_ENSMUST00000025264|mouse|control|control (ssRNA)
RNA: GGGAGUUCUACAGUCCGACGAUCUAACUUAAUAUCCUCUUUCCUGUCAUUCAGCACCUCAUUUGGAGCAGGAAUUGGGACUUUAUUUUGCAUCCAGGCCUGCUGGAACUGGGCAGGAAUGGGCUUCGCAUAGGGGACUUUCUUCAACAGAGGAUUGAGCAUCA
B14: 77714292_77722976_382_3pUTR_ENSMUSG00000025427_ENSMUST00000026494|mouse|control|control (ssRNA)
RNA: GGGAGUUCUACAGUCCGACGAUCGGGGUGGACAGACACUCGAUCCUGAUUCCGCCUGGGAUGCGAGACGAGCCUGCGGUGCUGAGCUUCCAGGAGCUGCUGCUGCAGCAGGUAUUGCUGGUGCAGGGCCUGAGGUAGGAAGGACAACAGAGGAUUGAGCAUCA

The binders below were run against T1, UNK ZnF1-3 (assay: nsRBNS (natural sequence RNA bind-n-seq); RBNS binding buffer (assumed for nsRBNS): 25 mM Tris pH 7.5, 150 mM KCl, 3 mM MgCl2, 0.01% Triton X-100, 500 ug/ml BSA, 20 U/ml SUPERase-In, 4 C; UNK is unkempt and MSI1 is Musashi-1; names of the RNAs are library labels; protein concentration not given here; high values mean tight binding).

| Binder | binding signal |
| --- | --- |
| B1 | 1.13 enrichment R |
| B2 | 0.712 enrichment R |
| B3 | 1.39 enrichment R |
| B4 | 0.578 enrichment R |
| B5 | 0.594 enrichment R |
| B6 | 1.12 enrichment R |
| B7 | 1.98 enrichment R |
| B8 | 1.14 enrichment R |
| B9 | 1.18 enrichment R |
| B10 | 0.399 enrichment R |
| B11 | 0.893 enrichment R |
| B12 | 1.42 enrichment R |
| B13 | 0.714 enrichment R |
| B14 | 0.814 enrichment R |
